From publication PMC4336329 (PLoS ONE, 2015)
About 2,200 (0.71%) of roughly 310,000 compounds showed an effect of 50% or more. The effect is printed as a negative number. This is one part of the list.

biological target: human ether-à-go-go-related gene (hERG) potassium channel (human, UniProt Q12809); test: primary screen, population patch clamp on CHO cells stably expressing hERG
Sequence (Q12809 whole entry, looked up): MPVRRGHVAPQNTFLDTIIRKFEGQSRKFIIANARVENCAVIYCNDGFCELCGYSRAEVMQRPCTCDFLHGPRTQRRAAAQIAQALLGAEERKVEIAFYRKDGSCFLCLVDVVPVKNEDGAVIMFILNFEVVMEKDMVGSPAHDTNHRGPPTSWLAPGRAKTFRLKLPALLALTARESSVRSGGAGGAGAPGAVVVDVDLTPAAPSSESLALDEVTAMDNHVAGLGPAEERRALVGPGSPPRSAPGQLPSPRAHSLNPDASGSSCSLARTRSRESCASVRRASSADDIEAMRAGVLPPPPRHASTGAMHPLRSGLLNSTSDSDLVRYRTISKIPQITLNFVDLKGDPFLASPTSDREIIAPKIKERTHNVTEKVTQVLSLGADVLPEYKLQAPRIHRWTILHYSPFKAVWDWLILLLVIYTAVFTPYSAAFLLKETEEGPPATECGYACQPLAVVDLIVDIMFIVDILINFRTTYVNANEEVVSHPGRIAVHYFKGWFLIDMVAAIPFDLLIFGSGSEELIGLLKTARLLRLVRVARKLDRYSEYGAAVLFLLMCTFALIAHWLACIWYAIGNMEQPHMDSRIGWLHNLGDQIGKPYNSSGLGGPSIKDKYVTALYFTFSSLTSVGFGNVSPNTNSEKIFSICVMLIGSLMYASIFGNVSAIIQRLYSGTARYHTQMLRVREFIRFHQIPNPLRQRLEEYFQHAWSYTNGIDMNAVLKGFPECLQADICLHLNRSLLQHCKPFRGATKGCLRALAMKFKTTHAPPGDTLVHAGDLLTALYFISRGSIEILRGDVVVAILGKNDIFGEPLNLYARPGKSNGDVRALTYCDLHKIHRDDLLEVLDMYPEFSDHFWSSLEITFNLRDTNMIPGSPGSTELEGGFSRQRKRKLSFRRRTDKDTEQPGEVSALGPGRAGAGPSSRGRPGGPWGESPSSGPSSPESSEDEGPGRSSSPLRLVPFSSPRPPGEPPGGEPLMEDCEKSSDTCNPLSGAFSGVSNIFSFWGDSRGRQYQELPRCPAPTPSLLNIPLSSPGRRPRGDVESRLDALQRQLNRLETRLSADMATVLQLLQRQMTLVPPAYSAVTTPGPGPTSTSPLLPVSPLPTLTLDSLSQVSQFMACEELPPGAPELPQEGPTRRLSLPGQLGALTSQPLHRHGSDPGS

SMILES | hERG current change (%, negative = inhibition) at 1uM
Cc1cc(N2C(=O)C3C4C=CC(C4)C3C2=O)no1 (centres unmarked) | 16.5%
O=C(Nc1cccc(C(F)(F)F)c1)c1cccnc1 | 0.882%
CN(C)c1ccc2nsnc2c1[N+](=O)[O-] | 11%
COCc1cc(C(C)=O)ccc1OC | -0.348%
Cc1ccc(S(=O)(=O)c2cn(Cc3ccc(F)cc3)c3cc4c(cc3c2=O)OCO4)cc1 | 1.24%
CCC(=O)O.O=C(Nc1cccc(C2=NCCN2)c1)Nc1cccc(C2=NCCN2)c1 | 2.28%
COc1cccc(CN2CCN(C3CCN(c4ccccc4F)CC3)CC2CCO)c1 (centres unmarked) | -28.4%
Clc1ccc(-n2nnnc2-c2cnc3ccccc3c2-c2ccccc2)cc1 | 8.35%
Clc1ccccc1N1CCN(c2ncnc3nc[nH]c23)CC1 | 13.7%
O=S(=O)(Nc1ccc(-c2cn3cccnc3n2)cc1)c1ccccc1 | 1.21%
O=C(Nc1cccc(Br)c1)c1ccc(CSc2ccccc2)cc1 | 3.76%
O=C(OCCN1CCN(C2=NS(=O)(=O)c3ccccc32)CC1)c1ccccc1F | 12.2%
COc1ccc(CNC(=O)CCN2C(=O)c3ccccc3C2=O)cc1OC | 14.7%
CC1=NOC(=O)/C1=C/c1ccc2c(c1)OCO2 | 7.68%
CCC1(CC)C(=O)NC(=O)NC1=Nc1cccc(OC)c1 | 8.24%
c1ccc(OCc2nc(-c3ccncc3)no2)cc1 | 6.55%
Cn1cccc1C(=O)NC(=O)COC(=O)c1ccccc1Sc1ccccc1C#N | -2.72%
CC(=O)Nc1ccc(/C(C)=N/NC(=O)CN(c2ccccc2Br)S(C)(=O)=O)cc1 | 11.9%
CCCOc1ccc(C(=O)Nc2ccc(CN3CCOCC3)cc2)cc1 | 14.4%

SMILES | hERG current change (%, negative = inhibition) at 1uM
O=C(C1=C[C@@H](c2ccccc2)C[C@@H](OCc2ccc(CO)cc2)O1)N1CCOCC1 | 5.09%
O=c1/c(=C\c2ccc(F)cc2)sc2n1CCCN=2 | 8.88%
COC(=O)c1cc(NC(=O)CC2C(=O)NCCN2C(=O)c2ccc(F)cc2)cc(C(=O)OC)c1 (centres unmarked) | 3.17%
O=c1[nH]c(C2CCCN(S(=O)(=O)Cc3ccccc3)C2)nc2c1nnn2Cc1cccc(Cl)c1 (centres unmarked) | 16%
O=C(Cn1c(CN2CCCCC2)nc2ccccc2c1=O)NC1CCCCC1 | 11.6%
CCOC(=O)C1CCN(C2=NC(=O)/C(=C/c3ccc(O)cc3)S2)CC1 | -17.8%
O=C(CNC(=O)c1ccc(Cl)cc1)c1ccc(Br)cc1 | 7.35%
CCCCCc1cc(=O)oc2c(C(CCN3CCCCC3)c3ccc(OC)cc3)c(OC)cc(OC)c12 (centres unmarked) | 1.13%
Cc1cc(N2CC34C=CC(O3)C(C(=O)O)C4C2=O)no1 (centres unmarked) | 8.44%
CC(=O)c1cccc(NC(=O)c2cccc(N3C(=O)c4ccccc4C3=O)c2)c1 | -8.83%
CCN(CC)c1ccc(C=C2C(=O)N(C)C(=S)N(C)C2=O)o1 | 8.41%
Cc1cccc(CN2C[C@]34CC[C@@H](C[C@@H]3S2(=O)=O)O4)c1 | 9.43%
COc1ccc(N2CCN(C(=O)c3[nH]c4ccc(OC)cc4c3C)CC2)cc1 | 7.08%
Cn1c(N)c(C(=O)COC(=O)c2cc(C3CC3)nc3ccccc23)c(=O)n(Cc2ccccc2)c1=O | 17.4%
O=c1c2ccccc2nc2n1CCC2O (centres unmarked) | 10.1%
Cc1cc(C)c(NC(=O)CN(C2CCCCC2)C2CCCCC2)c(C)c1 | 2.14%
O=C(NC1CCCCCC1)c1nnc(Cc2ccc(Cl)cc2)o1 | 4.44%
COc1ccc(/C=C(/NC(=O)c2ccccc2)C(=O)NC2CCS(=O)(=O)C2)cc1 (centres unmarked) | 7.67%
CCC(=O)N1CCN(c2ccc(Cl)cc2NC(=O)c2ccc(N3CCCC3)c([N+](=O)[O-])c2)CC1 | -2.71%

SMILES | hERG current change (%, negative = inhibition) at 1uM
Cc1cc(C(=O)COC(=O)C2=COCCO2)c(C)n1-c1cccc(F)c1 | -13.6%
CC(=O)c1cccc(S(=O)(=O)N2CCC(c3nc4ccccc4[nH]3)CC2)c1 | -26.6%
CCC1CCCCN1C(=O)CSc1nnc(-c2ccc(Cl)s2)o1 (centres unmarked) | -5.94%
Cc1cc(C)n(C(=O)C(C)N2C(=O)c3ccccc3C2=O)n1 (centres unmarked) | -6.66%
COCCCNC(=O)CCc1nc2cccnc2n1Cc1ccc(OC)cc1 | 9.04%
COc1cccc(NC(=O)C(=O)NCc2ccncc2)c1 | 5.8%
COC(=O)c1cn(-c2ccccc2)c(=O)c2ccccc12 | 15.6%
N#Cc1ccc(CSc2nnc(-c3c[nH]c4ccccc34)n2-c2ccccc2)cc1 | 9.98%
COc1cccc(C(=O)COC(=O)c2n[nH]c(=O)c3ccccc23)c1 | 11%
COc1ccc(-c2cnnn2-c2ccc(N)cc2)cc1OC | -0.309%
COc1ccc(/C=N/NC(=O)c2cccc(NC(=O)c3ccccc3Cl)c2)cc1OC | 11.9%
CCOC(=O)c1ccc(NC(=O)C2(c3ccc(Cl)cc3)CCCC2)cc1 | 0.764%
CCN(Cc1ccccc1)C(=O)CN1C(=O)NC(CC)(c2ccc(F)cc2)C1=O (centres unmarked) | 11.4%
O=c1oc2cc([N+](=O)[O-])ccc2nc1/C=C(O)/C=C/c1ccccc1 | 15.5%
CC(C)C[C@]1(c2ccccc2)ON(c2ccccc2C(F)(F)F)C1=O | 9.78%
O=C(N/N=C\c1cc(Br)cs1)C1COc2ccccc2O1 (centres unmarked) | 15.8%
CCOC(=O)C1=C(C)N(C)C(=O)NC1c1cccc([N+](=O)[O-])c1 (centres unmarked) | 3.62%
CC(=O)Nc1ccc(NC(=S)Nc2ccc(F)cc2)cc1 | 16.6%
